# Data taken from PMC4336329 (PLoS ONE, 2015).
# The whole screen tested about 310,000 compounds, of which about 14,000 (4.5%) showed an effect of 50% or more. The effect is printed as a negative number. This is one part of the list.
# Target: human ether-à-go-go-related gene (hERG) potassium channel (human, UniProt Q12809)
# Assay: primary screen, population patch clamp on CHO cells stably expressing hERG
# 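Further: peak tail current of the secondary pulse compared with the same well before compound.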
# Chain of human ether-à-go-go-related gene (hERG) potassium channel (Q12809 whole entry, looked up): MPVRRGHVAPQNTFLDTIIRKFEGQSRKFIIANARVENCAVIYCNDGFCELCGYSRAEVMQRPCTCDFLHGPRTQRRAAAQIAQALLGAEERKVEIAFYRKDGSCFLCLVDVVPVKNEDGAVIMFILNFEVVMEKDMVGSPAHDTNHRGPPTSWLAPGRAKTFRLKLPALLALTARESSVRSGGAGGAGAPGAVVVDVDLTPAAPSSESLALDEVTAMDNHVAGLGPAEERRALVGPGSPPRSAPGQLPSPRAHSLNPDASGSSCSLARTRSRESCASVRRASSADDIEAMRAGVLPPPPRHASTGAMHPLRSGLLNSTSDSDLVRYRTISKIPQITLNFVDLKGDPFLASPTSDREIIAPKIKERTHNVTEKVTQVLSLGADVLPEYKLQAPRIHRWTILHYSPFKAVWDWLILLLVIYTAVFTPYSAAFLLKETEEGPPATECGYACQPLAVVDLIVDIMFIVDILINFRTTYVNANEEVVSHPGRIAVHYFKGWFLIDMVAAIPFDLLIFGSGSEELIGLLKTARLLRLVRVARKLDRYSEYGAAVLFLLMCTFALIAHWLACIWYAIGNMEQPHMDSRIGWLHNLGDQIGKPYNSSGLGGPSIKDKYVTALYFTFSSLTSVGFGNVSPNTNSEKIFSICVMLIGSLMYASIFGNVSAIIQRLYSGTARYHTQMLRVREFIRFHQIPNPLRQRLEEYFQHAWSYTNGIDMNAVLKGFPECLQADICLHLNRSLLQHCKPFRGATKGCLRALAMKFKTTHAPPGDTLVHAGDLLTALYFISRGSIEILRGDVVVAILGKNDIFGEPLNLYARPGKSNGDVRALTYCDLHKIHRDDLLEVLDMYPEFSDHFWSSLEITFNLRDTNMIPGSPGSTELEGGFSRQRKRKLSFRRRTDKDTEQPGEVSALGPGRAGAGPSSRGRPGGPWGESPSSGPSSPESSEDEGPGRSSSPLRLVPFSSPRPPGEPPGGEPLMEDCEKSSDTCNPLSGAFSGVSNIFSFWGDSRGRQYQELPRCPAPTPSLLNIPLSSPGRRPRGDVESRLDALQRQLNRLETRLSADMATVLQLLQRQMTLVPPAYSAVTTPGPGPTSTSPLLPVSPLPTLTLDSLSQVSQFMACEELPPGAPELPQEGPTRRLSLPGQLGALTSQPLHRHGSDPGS
row,SMILES,"hERG current change (%, negative = inhibition) at 10uM [%]"
1,CSc1nnnn1CCn1nnnc1SC,10.1
2,Cl.O.O=C(NCCCCCCNC(=O)c1cncc(O)c1)c1cncc(O)c1,5.65
3,COc1ccc(-c2nn(CCC#N)cc2C(=O)Nc2ccccc2Br)cc1[N+](=O)[O-],-39.6
4,CNc1ccc(/C=C/C(=O)c2ccc3c(c2)OCCO3)cc1[N+](=O)[O-],1
5,COc1ccc(/C=C/c2ccc3cccc(O)c3n2)c(OC)c1OC,21
6,COc1ccc(-n2c(SCC[NH+](C)C)nc3ccccc3c2=O)cc1.[Cl-],-32.6
7,Cc1ccc(C)c(OCc2cc(C(=O)NC3CCOC(C)(C)C3)no2)c1 (centres unmarked),8.47
8,CC(C)[C@H](NC(=O)OC(C)(C)C)C(=O)N1CCC(C(=O)N[C@@H](C)C(=O)Nc2ccc(F)cc2)CC1,10.7
9,Cc1ccc(S(=O)(=O)Nc2nc3ccccc3nc2NCc2ccco2)cc1,-11.3
10,N#Cc1c(-c2ccc3c(c2)OCO3)ccn2nc(-c3cccc(C(F)(F)F)c3)nc12,-9.61
11,CN(C)/C=N/c1nc2nccc(-c3ccccc3)n2n1,9.42
12,COCCCNC(=S)Nc1ccc2nc3n(c(=O)c2c1)CCCCC3,7.89
13,O=C(CCc1nc2ccccc2c(=O)[nH]1)OCc1ccc(-c2ccccc2)cc1,-0.168
14,COc1cccc(CN(C)CC(=O)Nc2sc3c(c2C#N)CCC3)c1OC,10.3
15,CC(C)CN(C(=O)c1cccc(S(=O)(=O)N2CCN(C)CC2)c1)C1CCS(=O)(=O)C1 (centres unmarked),15.4
16,Cc1ccc(S(=O)(=O)N2CCN(CC(=O)Nc3ccc([N+](=O)[O-])cc3)CC2)cc1C,-76.9
17,COC(=O)c1c(C)oc(C)c1S(=O)(=O)N(Cc1ccccc1)C(C)C,-6.25
18,CCOc1ccc(N(CC(=O)Nc2cc(C)ccc2C)S(=O)(=O)c2c(C)[nH]c(=O)[nH]c2=O)cc1,-0.563
19,COc1cccc(C(=O)NCC(=O)OCC(=O)Nc2cc(OC)c([N+](=O)[O-])cc2C)c1,-5.76
20,O=C(c1ccco1)N1CCN(Cc2nnc(-c3cccc(Cl)c3)o2)CC1,-45.9
21,CS(=O)(=O)N(CC(=O)N1CCCC1)Cc1ccc(F)cc1,17.4

row,SMILES,"hERG current change (%, negative = inhibition) at 10uM [%]"
1,COc1cc2c(cc1OC)-c1cc(Nc3ccc(C(=O)O)cc3)nc(=O)n1CC2,9.45
2,CCC(C)OC(=O)C[N+](C)(C)CCOC1CC2CCC1(C)C2(C)C.[Cl-] (centres unmarked),-17.3
3,CC1CC(C)CN(C(=O)C2CCN(S(=O)(=O)c3c(Cl)cccc3Cl)CC2)C1 (centres unmarked),-15.7
4,CCCCn1c(N)c(N(CCC(C)C)C(=O)c2cccc(S(=O)(=O)N3CCN(C)CC3)c2)c(=O)[nH]c1=O,5.78
5,C=C(C)CNC(=S)NNC(=O)CCn1c2cc(Cl)ccc2c2ccc(Cl)cc21,11.7
6,CCc1c(C)nc(SC)n(CC#N)c1=O,-4.77
7,O=C(/C=C/Nc1ccccc1C(=O)O)c1cccs1,22.6
8,O=C(N/N=C/c1c(O)n(CCc2ccccc2)c(=O)[nH]c1=O)c1ccccc1O,-15.9
9,Clc1cccc(-c2noc3ncnc(Nc4ccc5c(c4)OCO5)c23)c1,-2.65
10,COc1ccc(/C=N/N2CCOCC2)cc1Cn1nc(C)c([N+](=O)[O-])c1C,-10.8
11,COc1cc(C(=O)NCc2nnc(SCC(=O)N3CCCCCC3)o2)cc(OC)c1OC,15.9
12,O=C1N(Cc2cccnc2)C[C@@H]2C[C@@H](c3cccc(OC4CCCC4)c3)N3CCC[C@@]123,-69.5
13,Cc1cccc(N2CCN(S(=O)(=O)c3ccc4[nH]c(=O)ccc4c3)CC2)c1C,-5.71
14,Cc1c(Cl)cccc1NC(=O)CC1SCCNC1=O (centres unmarked),2.98
15,COc1ccc(C2/C(=C(/O)c3ccccc3)C(=O)C(=O)N2C)cc1OC (centres unmarked),0.648
16,O=C(NCC(=O)N1CCN(c2ccccn2)CC1)c1ccc(Br)o1,-15.3
17,CCOC(=O)c1c(NC(=O)CSc2nnnn2-c2ccc3c(c2)OCCO3)sc(C)c1C,18.8
18,CCC(CC)NC(=O)CN(c1ccccc1OC)S(=O)(=O)c1cccs1,-11.3
19,COc1ccccc1CNC(=O)C1Cc2cc(S(=O)(=O)N3CCCCC3)ccc2N1C(C)=O (centres unmarked),-3.67
20,Cc1cc(C)c(S(=O)(=O)NCC(=O)NCc2ccccn2)c(C)c1,-5.49
21,O=c1[nH]c(=O)n(C(c2ccccc2)c2ccccc2)cc1Br,12.7

row,SMILES,"hERG current change (%, negative = inhibition) at 10uM [%]"
1,CCOC(=O)Cc1csc(NC(=O)C2CCCN(S(=O)(=O)c3cnc[nH]3)C2)n1 (centres unmarked),1.88
2,O=C(COC(=O)c1ccccn1)NC(=O)c1ccccc1,-4.07
3,Cc1nc(C)c(C(=O)OCC(=O)Nc2ccccc2SCC#N)s1,-16.3
4,COc1cc(NC(=O)CSc2nc3[nH]ncc3c(=O)n2-c2ccccc2C)cc(OC)c1OC,2.58
5,O=C(CC(c1ccccc1)c1cc(Br)ccc1O)N1CCCC1 (centres unmarked),-32.2
6,O=C(Nc1nnc(-c2ccco2)o1)c1ccc(Cl)cc1,-46.1
7,COc1ccc(CCNc2c([N+](=O)[O-])c(=O)oc3ccccc23)cc1OC,-13.9
8,Cc1ccc(C(=O)CCC(=O)OCC(=O)Nc2ccc3[nH]c(=O)[nH]c3c2)cc1,14
9,CC12CC(NC(=O)N1c1cccc(C(=O)NCc3ccccn3)c1)c1ccccc1O2 (centres unmarked),8.78
10,CCCOc1cccc(C2C(C(=O)c3ccco3)=C(O)C(=O)N2c2nnc(C)s2)c1 (centres unmarked),3.63
11,COC(=O)CCc1c(C)c(C(=O)c2ccc(F)cc2)c2ccccn12,0.135
12,Cc1sc(NC(=O)CS(=O)(=O)c2ccccc2)c(C(N)=O)c1C,-20.9
13,Cc1ccc(NS(=O)(=O)c2c(C)[nH]c(=O)[nH]c2=O)c(C)c1,24.3
14,CCn1c(C)nnc1SCC(=O)NC1CCCCCC1,19.3
15,COc1ccc(NC(=O)CCCCCN2C(=O)CCC2=O)cc1Cl,-2.22
16,N#CCc1ccc(OC(=O)c2cnccc2C(F)(F)F)cc1,6.26
17,COc1ccccc1N1CC(C(=O)OCC(=O)c2ccc(F)cc2)CC1=O (centres unmarked),-5.48
18,CCN(C(=O)CSc1ncn[nH]1)C1CCCCC1,6.3
19,CCOC(=O)CCP(=O)(O)C(C)(O)c1ccccc1 (centres unmarked),8.5
20,Cn1c(CO)cnc1SCC(=O)c1ccc(Br)cc1,8.93
21,O=C(c1cn(-c2ccccc2)nc1-c1cccs1)N1CCN(c2ccc(F)cc2)CC1,-11.2

row,SMILES,"hERG current change (%, negative = inhibition) at 10uM [%]"
1,Cc1cccnc1NC(=O)CN1C(=O)NC(C)(c2ccc3ccccc3c2)C1=O (centres unmarked),-14
2,Cc1onc(-c2ccccc2)c1C(=O)Nc1nnc(C(C)C)s1,-1.03
3,CCSc1nnc(Cc2cc(=O)[nH]c(=O)[nH]2)n1-c1ccc(F)cc1,15.4
4,O=C(NCc1ccccc1)c1cc(-c2ccncc2)nc2ccc(S(=O)(=O)N3CCOCC3)cc12,-23
5,O=C(N=C1SC2CS(=O)(=O)CC2N1c1ccccc1C(F)(F)F)C1CCCO1 (centres unmarked),2.32
6,COc1ccc(C(CNC(=O)C(CCSC)NC(=O)c2ccccc2Cl)N2CCOCC2)cc1 (centres unmarked),-8.2
7,Cc1cc(O)c(C(C)C)cc1NS(=O)(=O)c1ccccc1,3.62
8,COc1ccc(CCN2CN(S(=O)(=O)c3ccccc3)c3nc4ccccc4nc32)cc1OC,-0.784
9,O=C1c2cc(CO)cc(O)c2C(=O)c2c(O[C@@H]3OC(CO)[C@@H](O)[C@@H](O)[C@@H]3O)cccc21 (some centres unmarked),22
10,O=S(=O)(NCc1cn2ccsc2n1)c1ccc(Oc2ccccc2)cc1,-5.62
11,Cc1ncc([N+](=O)[O-])n1CCOC(=O)NC(NCc1ccccc1Cl)C(Cl)(Cl)Cl (centres unmarked),-37.8
12,COc1ccc(NC(=O)C2(c3ccc(NC(=O)c4ccc(OC)cc4)cc3)CCCC2)cc1,-9.88
13,O=C(O)c1cccc(Nc2nc(N3CCOCC3)nc(N3CCOCC3)n2)c1,-2.93
14,COc1ccc(S(=O)(=O)N2CCOCC2)cc1C(=O)N1CCCC1,14
15,O=C(O)CN1C(=O)S/C(=C\c2cccnc2)C1=O,8.9
16,Cc1c(C(N)=O)sc2ncn(CC(=O)NCCc3ccccc3)c(=O)c12,3.18
17,Cc1cc(C)nc(NS(=O)(=O)c2ccc(NC(=O)c3ccc(N4C(=O)CCC4=O)cc3)cc2)n1,11.1
18,CCOc1ccc(-c2csc(NC(=O)c3ccco3)n2)cc1,0.136
19,CC(=O)Nc1ccc(C(=O)OCC(=O)Nc2ccc(Cl)cc2C(=O)c2ccccc2)cc1,-10.2
20,CCOc1ccc(NS(=O)(=O)c2ccc(C(=O)N(C)CC(=O)Nc3ccc(C)cc3)cc2)cc1,2.63
